In PMC4336329 (PLoS ONE, 2015):
Hit rate of the full screen: of about 310,000 compounds, about 2,200 (0.71%) showed an effect of 50% or more. Effects have a minus sign here. The list shows a part of the results.

target: human ether-à-go-go-related gene (hERG) potassium channel (human, UniProt Q12809); assay: primary screen, population patch clamp on CHO cells stably expressing hERG
Sequence (Q12809 whole entry, looked up): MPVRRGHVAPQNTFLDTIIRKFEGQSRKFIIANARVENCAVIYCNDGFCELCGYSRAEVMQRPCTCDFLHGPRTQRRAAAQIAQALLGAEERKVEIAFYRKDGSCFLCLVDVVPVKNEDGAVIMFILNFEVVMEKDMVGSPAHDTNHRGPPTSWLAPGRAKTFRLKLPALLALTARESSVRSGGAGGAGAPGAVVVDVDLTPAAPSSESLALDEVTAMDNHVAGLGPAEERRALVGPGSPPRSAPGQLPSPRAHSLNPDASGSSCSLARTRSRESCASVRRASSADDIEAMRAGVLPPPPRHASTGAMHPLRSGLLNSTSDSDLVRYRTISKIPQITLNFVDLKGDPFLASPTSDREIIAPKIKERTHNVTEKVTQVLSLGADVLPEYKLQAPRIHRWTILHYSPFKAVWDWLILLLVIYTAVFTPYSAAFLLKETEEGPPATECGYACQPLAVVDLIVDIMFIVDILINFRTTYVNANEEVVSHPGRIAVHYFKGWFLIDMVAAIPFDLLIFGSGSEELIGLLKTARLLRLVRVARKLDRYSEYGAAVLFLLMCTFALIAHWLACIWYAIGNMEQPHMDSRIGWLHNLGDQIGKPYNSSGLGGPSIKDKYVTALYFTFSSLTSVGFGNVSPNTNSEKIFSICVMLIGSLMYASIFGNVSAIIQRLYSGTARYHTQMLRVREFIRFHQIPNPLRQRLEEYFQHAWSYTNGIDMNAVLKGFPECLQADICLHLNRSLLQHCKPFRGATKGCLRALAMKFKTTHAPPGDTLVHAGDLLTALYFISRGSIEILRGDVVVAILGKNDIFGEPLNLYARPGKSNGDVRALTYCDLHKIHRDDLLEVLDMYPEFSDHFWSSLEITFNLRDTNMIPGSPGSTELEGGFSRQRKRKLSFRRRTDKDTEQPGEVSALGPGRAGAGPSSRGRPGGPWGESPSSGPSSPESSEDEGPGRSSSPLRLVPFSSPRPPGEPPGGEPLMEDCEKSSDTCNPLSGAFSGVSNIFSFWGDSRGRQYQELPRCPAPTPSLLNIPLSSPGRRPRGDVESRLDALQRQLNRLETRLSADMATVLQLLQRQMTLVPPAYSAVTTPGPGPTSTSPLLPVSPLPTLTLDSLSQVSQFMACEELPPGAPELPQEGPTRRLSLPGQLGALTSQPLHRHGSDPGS

| SMILES | hERG current change (%, negative = inhibition) at 1uM [%] |
| --- | --- |
| COc1c(S(=O)(=O)N2CCN(C)CC2)ccc(Cl)c1Cl | 17.7 |
| COc1cc(/C=N/NC(=O)C(=O)NCc2ccco2)cc(Br)c1O | 14.3 |
| Cc1cc(C)n(C(=O)c2ccc(S(=O)(=O)NCC3CCCO3)cc2)n1 (centres unmarked) | -9.81 |
| O=C(NCc1nnc(SCC(=O)N2CCCC2)o1)c1ccc(F)cc1 | 14.2 |
| O=C(Cc1ccccc1F)Nc1nc(-c2ccc(F)cc2)cs1 | 18.2 |
| CCOC(=O)CN1C(c2ccccc2O)Nc2ccc(Br)cc2C1c1ccccc1 (centres unmarked) | -3.26 |
| COc1cc(/C=C2/SC(=O)NC2=O)ccc1Oc1ccc([N+](=O)[O-])cc1[N+](=O)[O-] | 14.1 |
| COc1ccc(C2CC(c3ccc(F)cc3)Nc3nc(N)nn32)cc1OC (centres unmarked) | 2.71 |
| COc1ccc(-n2c(=O)c3ccccc3n(CC(=O)NC3CCCCC3)c2=O)cc1OC | 14 |
| CCC(c1nnnn1Cc1ccc(F)cc1)N1CCN(C2CCCCC2)CC1.Cl (centres unmarked) | -25.9 |
| O=C(O)c1ccccc1-c1ccccc1C(=O)Nc1ccc(-c2nc3cc(Cl)ccc3o2)cc1 | 12.9 |
| CN(C)S(=O)(=O)Oc1ccc(Cl)cc1C(=O)Nc1cccc(C(F)(F)F)c1 | 6.8 |
| Cc1c(Cl)cnc(NC(=O)COC(=O)c2ccc3ncsc3c2)c1Cl | 0.297 |
| CCc1cccc(NC(=O)Nc2cccs2)c1 | 2.4 |
| C=CCNc1nc(-c2ccc(OC)cc2OC)cs1.Cl | 7.95 |
| CCc1cn([C@H]2C[C@H](O)[C@@H](CO)O2)c(=O)[nH]c1=O | 13.8 |
| Cc1ccc(CNC(=O)CSc2nc3ccsc3c(=O)n2NC(=O)c2ccccc2)cc1 | 12.2 |
| COc1ccc(-c2[nH]ncc2[C@@H]2C[C@H]3CN(Cc4ccccc4C)C(=O)[C@]34CCCN24)cc1 | 8.15 |
| Cc1ccccc1CN1C(=O)CSc2ccc(C(=O)N3CCOCC3)cc21 | 9.75 |
| CCOC(=O)N1CCN(Cc2cccs2)CC1 | 18.8 |
| CC(=O)Oc1ccc(N(C(C)=O)S(=O)(=O)c2ccc(C)cc2)c2ccccc12 | 8.46 |
| O=C(CSc1nnc2scc(-c3ccccc3)n12)c1ccc2c(c1)OCCO2 | 8.75 |

| SMILES | hERG current change (%, negative = inhibition) at 1uM [%] |
| --- | --- |
| CCOc1ccc(CN(C)C(C)C(=O)NCc2ccccc2)cc1 (centres unmarked) | -21.7 |
| CCOC(=O)c1c(NC(=O)c2ccccc2N(C)S(=O)(=O)c2ccccc2)sc2c1CCCC2 | 9.59 |
| O=C(Cn1c(=O)c2cccn2c2ccc(F)cc21)NCCCN1CCN(c2ccccc2F)CC1 | -14.8 |
| Cc1cc(C)n(CCNCc2c(C(=O)N3C[C@@H](C)O[C@@H](C)C3)nc3ccc(Cl)cn23)n1 | 15 |
| CCOC(=O)Cc1csc(NC(=O)CCCN2C(=O)c3ccccc3C2=O)n1 | 11.8 |
| O=C(Cn1nc(-c2ccc(Cl)cc2)ccc1=O)NCCCN1CCN(Cc2ccccc2)CC1 | -15.9 |
| O=C(c1cccnc1)N1CCC(Oc2ccc(C(=O)N3CCCCO3)cc2)CC1 | 6.32 |
| NC(=O)COc1ccc(NC(=O)OCc2ccccc2)cc1 | 3.93 |
| CC(=O)c1ccc(C(=O)N2CCCC(Nc3ccc(C(C)C)cc3)C2)s1 (centres unmarked) | 15.3 |
| CCOC(=O)N1CCN(C(=O)C(=O)Nc2ccc3nc4n(c(=O)c3c2)CCCCC4)CC1 | 7.89 |
| CCOC(=O)c1c(C)c(C(=O)NCc2cccs2)c(C)n1CC | -0.627 |
| CC(C)Cn1c(-c2ccc(F)cc2)n[nH]c1=S | 11.6 |
| COc1ccccc1CN1CCN(Cc2ccco2)CC1.O=C(O)C(=O)O | -0.696 |
| O=C(c1cnn2c(C(F)F)cc(-c3ccccc3)nc12)N1CCOCC1 | -0.431 |
| CCC(C)Sc1nnc(NC(=O)c2ccco2)s1 (centres unmarked) | 11.4 |
| C=CCc1cccc2cc(C(=O)N3CCN(c4ccccn4)CC3)c(=O)oc12 | -7.02 |
| COC(=O)c1ccncc1N | 12.4 |
| CCOC(=O)CSc1nc(=O)n2ccc(C)cc2n1 | 18.9 |
| O=C(Cn1c(=O)oc2ccccc21)Nc1ccc(Cl)cc1 | 14.3 |
| CCCc1[nH]nc2c1C(/C(C)=C/c1ccccc1)C(C#N)=C(N)O2 (centres unmarked) | 6.11 |
| C/C(N)=C(/C#N)C(=O)COC(=O)C1Cc2ccccc2CN1S(C)(=O)=O (centres unmarked) | 15.8 |
| CCOc1cc(/C=N/NC(=O)CN2CCOCC2)ccc1OCc1ccc(Cl)cc1 | 5.07 |

| SMILES | hERG current change (%, negative = inhibition) at 1uM [%] |
| --- | --- |
| COc1ccc(CNC(=O)CCCn2nc(C)n3ccnc3c2=O)cc1 | 10.2 |
| COC(=O)C1=C(c2cccc(OC)c2OC)C[C@@H]2CC[C@H]1N2C | -1.48 |
| O=C(CCSc1nc(-c2ccco2)cc(C(F)(F)F)n1)Nc1ccc2c(c1)OCO2 | 8.51 |
| COCCNC(=O)Nc1ccc(F)cc1 | 16.7 |
| CC(=O)Nc1ccc2nc(CN3CCN(CC(C)C)C(CCO)C3)ccc2c1 (centres unmarked) | 5.3 |
| O=C(OCC1OC(n2cnc3c(N(C(=O)c4ccccc4)C(=O)c4ccccc4)ncnc32)C(O)C1F)c1ccccc1 (centres unmarked) | -1.26 |
| CC(=O)N1CCc2cc(Br)cc(S(=O)(=O)NCCCN3CCCC(C)C3)c21 (centres unmarked) | 8.52 |
| CCN(CC)CCN(C(=O)c1ccc(C(=O)c2ccccc2)cc1)c1nc2ccc(OC)cc2s1.Cl | 3.62 |
| Fc1cccc(Cl)c1-c1nnc2ccc3ccccc3n12 | 13.5 |
| Cc1ccc(NC(=O)C(Nc2ccccc2)c2ccccc2)cc1 (centres unmarked) | 5.26 |
| O=C(Oc1cccc2cccnc12)c1cccc(-n2cnnn2)c1 | 4.63 |
| CCN(CC)c1ccc(C=O)c(OC)c1 | 3.69 |
| CC(=O)COc1ccc2c(C)c(C)c(=O)oc2c1 | 9.03 |
| CCN(CC(=O)NC1CCS(=O)(=O)C1)S(=O)(=O)c1c(C)c(C)cc(C)c1C (centres unmarked) | 7.13 |
| Cc1onc(-c2ccccc2Cl)c1C(=O)Nc1ccc(F)c(F)c1 | 4.99 |
| O=C(CN(Cc1cccs1)S(=O)(=O)c1ccc(S(=O)(=O)N2CCCCC2)cc1)Nc1ccccc1 | 17.7 |
| Cc1ccc(SCC(=O)c2c(C)nc3ccccn23)cc1 | 26.7 |
| CN(C)CCN(C(=O)c1ccco1)c1nc2cc3c(cc2s1)OCCO3.Cl | -3.4 |
| COc1ccccc1N(CC(=O)N/N=C/c1c(O)ccc2ccccc12)S(C)(=O)=O | 17.5 |
| C=CCSc1nc2c(c(=O)[nH]c(=O)n2C)n1C(C)C | 7.93 |
| COc1cccc(/C=N/Nc2ncnc3scc(-c4ccccc4)c23)c1OC | 15 |
| Cc1cccc(NC(=O)CSc2ccc3nnc(-c4cccnc4)n3n2)c1 | -2.62 |

| SMILES | hERG current change (%, negative = inhibition) at 1uM [%] |
| --- | --- |
| COc1ccc(CNC(=O)COC(=O)CN2C(=O)COc3ccccc32)cc1 | -3.25 |
| CCCn1c(N)c(C(=O)CSc2nc(N)cc(=O)[nH]2)c(=O)n(C)c1=O | 12.5 |
| CC1(C)Cc2c(cnn2-c2ccccc2)C(NC(=O)CCc2ccc(=O)[nH]n2)C1 (centres unmarked) | 8.83 |
| COc1cc(-c2cc[n+](C)cc2)ccc1O.[Br-] | 4.62 |
| CC1CCN(S(=O)(=O)c2ccc3[nH]c(=O)[nH]c3c2)CC1 | 0.708 |
| CCC(c1nnnn1C1CCCC1)N1CCN(c2cccc(OC)c2)CC1.Cl (centres unmarked) | 4.7 |
| COCCCn1c(SCc2cc(=O)[nH]c3ccccc23)nnc1-c1ccco1 | 9.42 |
| O=C(O)CCC(=O)Nc1ccc2c(c1)oc1ccccc12 | 2.28 |
| O=C(NCC1CCCO1)c1cccc(Oc2ccc([N+](=O)[O-])cc2Cl)c1 (centres unmarked) | -21.7 |
| Cc1cc(NC(=O)CCC(=O)N(c2cccc(F)c2)C(C(=O)NC2CCCC2)c2ccncc2)no1 (centres unmarked) | 2.81 |
| Cn1nc(-c2ccccc2)cc1NC(=O)c1ccccc1 | 16.3 |
| Cc1ccccc1[C@]1(C)ON(c2ccccc2C(F)(F)F)C1=O | 14.2 |
| C=CCn1c(=O)c(C(=O)NCCc2ccc(Cl)cc2)c(O)c2cc(OC)c(OC)cc21 | 17 |
| CCc1ncc(CN2CCC(C(=O)Nc3cccc(-c4cscn4)c3)CC2)cn1 | 3.38 |
| CC(C)c1ccc(NC(=O)c2snc3ccc(Cl)cc23)cc1 | 11.6 |
| CCOc1ccc(N(CC(=O)Nc2ccc(C)cc2)S(C)(=O)=O)cc1 | 9.55 |
| O=C(Cc1ccc(NS(=O)(=O)c2ccc(F)cc2)cc1)NCc1cccnc1 | 12.4 |
| COC(=O)CCCCCN1C(=O)NC(c2ccccc2)C(C(=O)OCc2ccccc2)=C1C (centres unmarked) | 16 |
| O=C(c1ccc(S(=O)(=O)N2CCOCC2)cc1)N1CCN(c2cccc(Cl)c2)CC1 | -5.84 |
| N#CC1(NC(=O)CSc2nc3ccccc3s2)CCCCC1 | 1.72 |
